# Test results taken from patent US20160008427A1 (Genentech, published 2016).
# Assays:
# C3b [1] = target: T1, C3b (human, UniProt P01024 23-667; P01024 partial chain); assay: SPR (Biacore A100), CRIg fusion captured by anti-muFc, C3b injected, steady state analysis
# T1 construct: also called soluble C3b; human C3b
# Protocol: (§1) Affinities of C3b for mutant and wild-type CRIg were determined by using surface plasmon resonance measurements on a Biacore® A100 instrument (GE healthcare). An anti-Fc capture format was employed and the KD was calculated from equilibrium binding measurements. The sensor chip was prepared using the anti-muFc capture kit (BR-1008-38) following instructions supplied by the manufacturer. Mutant or wild-type CRIg was diluted in running buffer (10 mM HEPES pH 7.4, 150 mM NaCl, 0.01% Tween-20) to 1 μg/mL and injections of 60 μL were made such that ˜100 RU of fusion protein were captured on one spot of the chip surface. Sensorgrams were recorded for 10 min injections of solutions of varied C3b concentration over the CRIg spot with subtraction of signal for a reference spot containing the capture antibody but no CRIg. Data were obtained for a 2-fold dilution series of C3b ranging in concentration from 4 μM to 15.6 nM with the flow rate at 10 μL/min and at a temperature of 25° C. The surface was regenerated between binding cycles by a 30 second injection of 10 mM Gly-HCl pH 1.7. Plateau values obtained at the end of each C3b injection were used to calculate KD using the Affinity algorithm of the Biacore A100 Evaluation Software v1.1 (Safsten et al. (2006) Anal. Biochem. 353:181).
# C3b [2] = target: T1, C3b; assay: cell-based or functional assay
# T1 sequence (P01024 23-667 limits assumed, chain 1 of 2): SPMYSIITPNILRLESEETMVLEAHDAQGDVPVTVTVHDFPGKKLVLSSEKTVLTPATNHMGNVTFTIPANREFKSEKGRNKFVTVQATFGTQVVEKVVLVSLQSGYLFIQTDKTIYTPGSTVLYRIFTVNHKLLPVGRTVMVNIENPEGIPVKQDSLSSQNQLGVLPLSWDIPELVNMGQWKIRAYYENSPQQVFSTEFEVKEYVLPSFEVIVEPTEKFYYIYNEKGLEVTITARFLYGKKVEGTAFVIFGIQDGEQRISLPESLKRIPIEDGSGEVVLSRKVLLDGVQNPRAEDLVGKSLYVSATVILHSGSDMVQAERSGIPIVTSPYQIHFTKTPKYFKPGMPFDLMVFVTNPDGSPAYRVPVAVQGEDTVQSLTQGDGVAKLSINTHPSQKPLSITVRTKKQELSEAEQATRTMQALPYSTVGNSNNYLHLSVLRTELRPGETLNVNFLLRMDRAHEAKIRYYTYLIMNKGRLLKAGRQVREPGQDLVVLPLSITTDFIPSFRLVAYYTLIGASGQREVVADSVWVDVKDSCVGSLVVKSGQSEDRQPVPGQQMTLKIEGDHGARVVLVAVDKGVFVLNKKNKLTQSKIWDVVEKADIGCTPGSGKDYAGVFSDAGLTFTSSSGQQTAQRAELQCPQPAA
# T1 sequence (P01024 749-1663 limits assumed, chain 2 of 2): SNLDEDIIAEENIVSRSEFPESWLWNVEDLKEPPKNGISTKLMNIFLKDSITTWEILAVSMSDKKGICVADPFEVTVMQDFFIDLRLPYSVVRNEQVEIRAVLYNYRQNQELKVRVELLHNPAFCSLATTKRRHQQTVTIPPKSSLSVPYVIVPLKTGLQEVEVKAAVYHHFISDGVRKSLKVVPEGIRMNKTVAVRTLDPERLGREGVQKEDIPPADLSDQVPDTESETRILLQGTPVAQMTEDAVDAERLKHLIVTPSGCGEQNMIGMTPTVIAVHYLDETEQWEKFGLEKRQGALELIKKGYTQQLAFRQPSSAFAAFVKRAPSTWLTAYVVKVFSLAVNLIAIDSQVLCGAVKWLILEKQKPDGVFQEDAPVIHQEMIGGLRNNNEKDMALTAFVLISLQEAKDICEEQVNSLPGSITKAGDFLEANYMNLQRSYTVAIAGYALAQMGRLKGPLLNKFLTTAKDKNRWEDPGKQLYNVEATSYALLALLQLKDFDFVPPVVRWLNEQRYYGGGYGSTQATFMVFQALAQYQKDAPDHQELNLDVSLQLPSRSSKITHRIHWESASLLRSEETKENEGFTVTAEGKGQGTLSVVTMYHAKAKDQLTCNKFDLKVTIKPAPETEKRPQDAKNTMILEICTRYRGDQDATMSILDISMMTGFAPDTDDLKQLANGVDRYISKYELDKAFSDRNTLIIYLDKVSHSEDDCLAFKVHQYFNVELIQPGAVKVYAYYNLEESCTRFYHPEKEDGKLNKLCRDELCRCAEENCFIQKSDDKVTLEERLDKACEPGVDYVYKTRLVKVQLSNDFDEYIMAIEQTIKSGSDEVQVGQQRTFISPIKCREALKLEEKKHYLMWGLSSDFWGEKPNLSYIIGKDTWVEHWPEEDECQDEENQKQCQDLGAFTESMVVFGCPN
# C3b [3] = target: T1, C3b; assay: SPR (Biacore)
# Protocol: as §1
Binder,Kd (C3b [1]) [nM],IC50 in a LPS-based assay selective for the alternative pathway of complement (C3b [2]) [fold],IC50 in an erythrocyte-based hemolytic assay selective for the alternative pathway of complement (C3b [2]) [fold],fold improvement of affinity over wildtype CRIg (C3b [3]) [fold]
"wild-type CRIg, mouse IgG1 Fc fusion protein (Fc fusion, also called CRIg wt; hCRIg-mIgG1; not shown: mouse IgG1 Fc (mIgG1; captured by anti-muFc)) [about 120 residues not shown]HSSKLLKTKTEAPTTMTYPLKATSTVKQSWDWTTDMDGYLGETSAGPGKSLP",1100,–,–,–
"CRIg Q64R M86Y (purified variant protein used in the competitive ELISA, AlphaScreen and complement assays) (receptor, not shown: a dimerising Fc or GST, also called RL41; CRIg-ECD protein with combined amino acid substitutions Q64R and M86Y) not shown",–,180,4,–
"CRIg Q64R M86Y, mouse IgG1 Fc fusion protein (Fc fusion, also called Q64R/M86Y mutant; hCRIg-RL41-mIgG1; not shown: mouse IgG1 Fc (mIgG1; captured by anti-muFc)) [about 120 residues with changes not shown]HSSKLLKTKTEAPTTMTYPLKATSTVKQSWDWTTDMDGYLGETSAGPGKSLP",200,–,–,5
